Laboratory results from the CheMixHub viscosity set.
“And” between values parts separate entries of the source, which are not always exact repeats. Identical values can stand only once. This continues a long series; more values of the same kind are listed elsewhere.

Legend:
[1] = xn = mol fraction of the nth substance listed

CC(C)=O
101 kPa
Conditions	viscosity
293.15 K	0.3339 mPa·s and 0.318 mPa·s
298.1 K	0.331 mPa·s and 0.336 mPa·s and 0.342 mPa·s
298.15 K	0.309 mPa·s and 0.3045 mPa·s and 0.3212 mPa·s
303.15 K	0.2954 mPa·s and 0.3086 mPa·s
308.15 K	0.2939 mPa·s and 0.2809 mPa·s and 0.2809 mPa·s
313.15 K	0.2713 mPa·s and 0.2839 mPa·s and 0.266 mPa·s
323.15 K	0.2504 mPa·s

CCOS(=O)(=O)[O-].CC[n+]1ccn(C)c1
100 kPa
Conditions	viscosity [mPa·s]
298.15 K	100.6
313.15 K	49.7

c1ccccc1
Conditions	viscosity
293.15 K, 101.33 kPa	0.657 mPa·s and 0.6862 mPa·s and 0.6858 mPa·s
295.15 K, 101 kPa	0.628 mPa·s
298 K, 101.33 kPa	0.6119 mPa·s
298.15 K, 100 kPa	0.6099 mPa·s
298.15 K, 101.3 kPa	0.606 mPa·s and 0.61 mPa·s
299.15 K, 101.3 kPa	0.619 mPa·s
303 K, 101.33 kPa	0.5652 mPa·s
303.15 K, 101.3 kPa	0.5651 mPa·s and 0.539 mPa·s
303.15 K, 101.33 kPa	0.518 mPa·s
303.2 K, 101.33 kPa	0.554 mPa·s
308.15 K, 101.3 kPa	0.5284 mPa·s and 0.525 mPa·s
308.15 K, 101.33 kPa	0.5413 mPa·s and 0.493 mPa·s and 0.528 mPa·s
313 K, 101.33 kPa	0.4992 mPa·s
313.15 K, 101.33 kPa	0.4863 mPa·s and 0.49 mPa·s
318.15 K, 101 kPa	0.465 mPa·s and 0.553 mPa·s and 0.464 mPa·s
318.15 K, 101.33 kPa	0.46 mPa·s
322.55 K, 101 kPa	0.4691 mPa·s
323 K, 101.33 kPa	0.435 mPa·s and 0.4447 mPa·s
323.15 K, 100 kPa	0.4453 mPa·s
323.15 K, 101 kPa	0.438 mPa·s and 0.415 mPa·s and 0.442 mPa·s
323.15 K, 101.33 kPa	0.415 mPa·s and 0.4344 mPa·s

NCCCN + CC(O)CO
[1], 318.15 K, 101.3 kPa
Conditions	viscosity [mPa·s]
x2 = 0.2945	3.56
x2 = 0.3441	4.45
x2 = 0.3937	5.56
x2 = 0.4435	6.94
x2 = 0.4934	8.56
x2 = 0.5435	10.3
x2 = 0.5937	12.1
x2 = 0.644	14
x2 = 0.6945	15.5
x2 = 0.745	16.7
x2 = 0.7958	17.3
x2 = 0.8466	17.4
x2 = 0.8976	17
x2 = 0.9487	16.3

OCCCO + CS(C)=O
[1], 318.15 K, 101 kPa
Conditions	viscosity [mPa·s]
x1 = 0.3056	2.84
x1 = 0.356	3.18
x1 = 0.4064	3.58
x1 = 0.4566	4.04
x1 = 0.5066	4.59
x1 = 0.5565	5.22
x1 = 0.6063	5.95
x1 = 0.6556	6.82
x1 = 0.7055	7.83
x1 = 0.7549	9.03
x1 = 0.8042	10.5
x1 = 0.8533	12.1
x1 = 0.9024	14
x1 = 0.9512	16.2

CS(=O)(=O)O + O
viscosity [mPa·s], [1], 100 kPa
Conditions	x1 = 0.003409	x1 = 0.004307	x1 = 0.005194	x1 = 0.006086	x1 = 0.006979	x1 = 0.007862	x1 = 0.008752
308.15 K	–	0.7529	0.762	0.7678	0.7775	0.786	0.7898
313.15 K	0.679	0.6843	0.6926	0.7016	0.7064	0.7136	0.7212
318.15 K	0.6205	0.6262	0.6338	0.6392	0.6467	0.6541	0.6593

NCCCN + O
viscosity [mPa·s], [1], 101 kPa
Conditions	303.15 K	308.15 K	313.15 K	318.15 K	323.15 K
x1 = 0.05	–	–	–	–	0.9913
x1 = 0.0518	1.637	1.437	1.267	1.127	1.008
x1 = 0.0966	–	–	–	1.765	1.549
x1 = 0.1	2.991	2.534	2.174	1.887	1.65
x1 = 0.1458	–	–	–	2.589	2.222
x1 = 0.1498	4.882	4.012	3.345	2.827	2.417
x1 = 0.199	–	–	–	3.536	2.951
x1 = 0.2004	6.762	5.446	4.467	3.714	3.132
x1 = 0.2473	–	–	–	4.078	3.425
x1 = 0.2498	7.872	6.309	5.128	4.236	3.548
x1 = 0.2734	8.088	6.473	5.268	4.351	3.646
x1 = 0.2961	–	–	–	4.378	3.676
x1 = 0.2984	8.108	6.502	5.297	4.379	3.662
x1 = 0.3248	7.918	6.364	5.199	4.307	3.619
x1 = 0.3465	–	–	–	4.336	3.632
x1 = 0.3502	7.614	6.155	5.027	4.189	3.518
x1 = 0.3766	7.121	5.774	4.754	3.972	3.354
x1 = 0.3974	–	–	–	4.12	3.47
x1 = 0.4041	6.681	5.464	4.509	3.787	3.211
x1 = 0.4467	5.911	4.871	4.068	3.445	2.935
x1 = 0.4955	–	–	–	3.414	2.935
x1 = 0.5995	–	–	–	2.674	2.314
x1 = 0.6969	–	–	–	2.114	1.866
x1 = 0.8006	–	–	–	1.712	1.534
x1 = 0.8936	–	–	–	1.416	1.281

NCCCN + OCCCO
[1], 318.15 K, 100 kPa
Conditions	viscosity [mPa·s]
x2 = 0.2945	4.787
x2 = 0.3441	6.147
x2 = 0.3937	7.884
x2 = 0.4435	10.14
x2 = 0.4934	12.59
x2 = 0.5435	15.46
x2 = 0.5937	17.71
x2 = 0.644	21.16
x2 = 0.6945	23.1
x2 = 0.745	24.52
x2 = 0.7958	25.07
x2 = 0.8466	24.87
x2 = 0.8976	24.04
x2 = 0.9487	22.17
